PubChem BioAssay AID1768 (National Center for Advancing Translational Sciences (NCATS), 2009)
Screen size: about 270,000 compounds; about 620 (0.23%) were called active. This list was built around the results that the source calls inconclusive (neither active nor inactive); the mix of calls is not that of the screen. The call rests on the fitted dose curve; in most records, active means well fitted inhibition curve with a large enough effect in the polarisation, with a control signal flat (not every such curve was filed as active); inconclusive means small, poorly fitted or top-dose-only effect, or effect the other way, or a change in a side signal; inactive means no such curve, though single readings can be large or run the other way; the % refers to the polarisation. Potencies of inconclusive entries are doubtful fits and often do not repeat. “Side channel” marks fits to a control or component signal instead of the main read-out.

target: Menin (Homo sapiens) (UniProt O00255); test: qHTS Assay for Inhibitors Targeting the Menin-MLL Interaction in MLL Related Leukemias: Competition With Texas Red Labeled MLL-derived Mutant Peptide; settings: fluorescence polarization; series mostly up to 61.6 µM
Chain of UniProt O00255 (O00255 whole entry, looked up): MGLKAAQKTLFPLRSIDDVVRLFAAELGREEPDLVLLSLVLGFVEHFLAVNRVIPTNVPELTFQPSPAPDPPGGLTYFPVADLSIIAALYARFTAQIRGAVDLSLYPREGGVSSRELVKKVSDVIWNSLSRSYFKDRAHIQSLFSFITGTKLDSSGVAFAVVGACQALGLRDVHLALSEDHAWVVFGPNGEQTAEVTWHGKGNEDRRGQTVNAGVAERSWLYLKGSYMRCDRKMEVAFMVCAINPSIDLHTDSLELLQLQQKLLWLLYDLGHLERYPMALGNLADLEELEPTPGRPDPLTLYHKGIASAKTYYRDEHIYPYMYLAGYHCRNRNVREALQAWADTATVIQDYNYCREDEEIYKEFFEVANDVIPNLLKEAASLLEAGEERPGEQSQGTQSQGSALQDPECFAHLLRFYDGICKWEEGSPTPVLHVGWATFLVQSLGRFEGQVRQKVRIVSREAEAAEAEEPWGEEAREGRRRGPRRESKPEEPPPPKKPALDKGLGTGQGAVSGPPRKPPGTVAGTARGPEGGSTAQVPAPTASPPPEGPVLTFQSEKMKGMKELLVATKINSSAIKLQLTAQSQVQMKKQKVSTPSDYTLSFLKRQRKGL
Potency means the concentration at half of the fitted maximal effect; tags describe the fitted curve by direction and shape or compound fluorescence and quenching.

Compound | Potency
Cc1ccc(S(=O)(=O)Nc2ccccc2C(=O)Nc2sccc2C(=O)NN(C)C)cc1 | inconclusive: 22.4 µM [quencher, side channel, single point]
CC(C)CCNC(=O)C(c1ccco1)N(Cc1cccs1)C(=O)Cn1nnc2ccccc21 (stereo not given) | inconclusive: 2.82 µM [fluorescent, side channel, full curve]
COc1cccc(/C=N/n2c(C3CCCCC3)n[nH]c2=S)c1OC | inconclusive: 25.1 µM [inhibitor, partial curve]
COc1cccc(/C=N/Nc2ccc(C(=O)O)cc2)c1O | inconclusive: 15.8 µM [quencher, side channel, partial curve]
O=S(=O)(c1ccc(Cl)nc1)N1CCCc2ccccc21 | inactive
Cc1ccnc2nc(C(=O)Nc3nc(-c4ccccn4)cs3)nn12 | inactive
Cc1noc(C)c1-c1ccc2ncnc(NCc3cccn3C)c2c1 | inactive
Cc1c2ccccc2nc2c(F)c(NCCO)c(F)c(F)c12 | inconclusive: 15.8 µM [quencher, side channel, single point]
COc1ccccc1N1C(=O)N(C(C)=O)C2C1Nc1ccccc1N2C (stereo not given) | inactive
CN1C(=O)/C(=C/c2ccccc2OCc2ccccc2F)NC1=S | inconclusive: 39.8 µM [inhibitor, single point]
CCN(Cc1ccccc1)Cc1nnnn1Cc1ccccc1 | inconclusive: 5.01 µM [fluorescent, side channel, full curve, poor fit]
CN(Cc1cnccn1)C(=O)C1CCC(=O)N(CCc2ccc(Cl)cc2)C1 (stereo not given) | inconclusive: 5.01 µM [quencher, side channel, full curve, poor fit]
COc1cc(SC)ccc1C(=O)Nc1ccc2c(c1)CCC2 | inconclusive: 28.2 µM [fluorescent, side channel, partial curve]
COc1ccc(CN(C(=O)c2nsc(Cl)c2Cl)C(C(=O)NC2CCCCC2)c2ccc(OC)cc2)cc1 (stereo not given) | inconclusive: 3.55 µM [inhibitor, single point]
O=C(N/N=C/c1cc2c3c(c1O)CCCN3CCC2)c1ccccc1O | inconclusive: 3.55 µM [quencher, side channel, partial curve]
CC(CCc1ccccc1)NC(=O)COC(=O)c1ccc(S(C)(=O)=O)c([N+](=O)[O-])c1 (stereo not given) | inactive
O=C(c1cc(-c2cccc(O)c2)on1)N1CCCC1 | inactive
C=C(C[C@]1(C(=O)OC)CC2(CC=C(C)C)C(=O)C(C(=O)CC(C)C)=C(O)C(CC=C(C)C)(C1)C2=O)C(=O)OC (stereo not given in full) | inactive
O=C(CN1c2cccc3cccc(c23)S1(=O)=O)Nc1ccc(S(=O)(=O)N2CCOCC2)cc1 | inconclusive: 12.6 µM [quencher, side channel, partial curve]
Cc1ccc(/C=N/NC(=O)CSc2nc3ccccc3n2Cc2ccc(Cl)cc2)o1 | inconclusive: 8.91 µM [fluorescent, side channel, partial curve]

Compound | Potency
COc1ccc(NC(=O)Nc2cccc(F)c2)c(OC)c1 | inconclusive: 12.6 µM [quencher, side channel, partial curve]
CCOC(=O)C1(CCOc2ccccc2)CCN(Cc2ccc(C#CCCO)cc2)CC1 | inconclusive: 10 µM [fluorescent, side channel, full curve, poor fit]
Oc1ccc(/C=N/NC(=S)N/N=C/c2ccc(O)cc2)cc1 | inconclusive: 5.01 µM [inhibitor, full curve, poor fit]
CCOc1cc(C=O)cc(N=Nc2cccc([N+](=O)[O-])c2)c1O | inconclusive: 31.6 µM [quencher, side channel, single point]
CCOc1ccc(-c2ccc(SCC(=O)NC3CCCCC3)nn2)cc1 | inconclusive: 20 µM [fluorescent, side channel, partial curve]
Cc1c(NC(=S)NC(=O)c2ccc(-c3ccc(Cl)cc3)o2)cccc1C(=O)O | inconclusive: 22.4 µM [quencher, side channel, single point]
CCOC(=O)N1CCC(NC(=O)c2ccc3c(c2)N=C(CC)c2ccccc2S3)CC1 | inconclusive: 5.62 µM [fluorescent, side channel, full curve, poor fit]
COC(=O)[C@@]1(Cc2ccccc2)[C@H]2c3cc(C(=O)N4CCCC4)n(Cc4ccccc4)c3C[C@H]2CN1C(=O)c1ccccc1 | inconclusive: 3.16 µM [fluorescent, side channel, partial curve]
Fc1cccc(Cc2noc(CN3CCCN(C4Cc5ccccc5C4)CC3)n2)c1 | inconclusive: 6.31 µM [inhibitor, single point]
COc1ccc(-n2c(=O)c(-c3cccc(Cl)c3)nc3cncnc32)cc1 | inconclusive: 39.8 µM [fluorescent, single point]
Fc1cccc(CO/N=C/c2c(-c3ccccc3)nc3ccc(Cl)cn23)c1 | inactive
Cc1ccc2c(ccn3cc4c(c(=O)n(C)c(=O)n4C)c23)c1 | inconclusive: 8.91 µM [inhibitor, single point]
CC(=O)NC1[C@H]([C@H](O)[C@H](O)CO)OC(C(=O)O)=C[C@H]1N=C(N)N (stereo not given in full) | inactive
COc1ccc(S(=O)(=O)N2CCOCC2)cc1C(=O)Nc1nc2ccccc2s1 | inconclusive: 14.1 µM [quencher, side channel, partial curve]
Fc1ccccc1-c1ccc(/C=N/Nc2nc3ccccc3[nH]2)o1 | inconclusive: 25.1 µM [quencher, side channel, single point]
Cc1ccc(CN(C(=O)c2csnn2)C(C(=O)NC2CCCC2)c2ccco2)cc1 (stereo not given) | inconclusive: 8.91 µM [inhibitor, partial curve]
O=C(O)c1ccc(N2C(=O)Nc3ccccc3N2O)cc1 | inactive
CC(=O)Nc1ccc(C2=NNC(=Nc3cccc(S(=O)(=O)N(C)C)c3)SC2)cc1 | inconclusive: 11.2 µM [quencher, side channel, partial curve]
COc1ccc(-c2noc(Cc3ccc(Cl)cc3)n2)cc1OC | inconclusive: 8.91 µM [fluorescent, side channel, single point]
Clc1ccc(CSC2=NCCCN2)cc1Cl | inconclusive: 3.55 µM [inhibitor, single point]

Compound | Potency
CCc1nnc(NS(=O)(=O)c2ccc(NC(=O)c3ccc(Cl)cc3)cc2)s1 | inconclusive: 17.8 µM [quencher, side channel, partial curve]
CS(=O)(=O)c1ccc2nc(NC(=O)c3cccc(Cl)c3)sc2c1 | inconclusive: 39.8 µM [inhibitor, single point]
COc1ccc(/C=C2/C(=O)N(c3ccccc3)N=C2C)c(OC)c1 | inconclusive: 3.16 µM [fluorescent, side channel, single point]
CCn1cnc2sc(C(=O)N(Cc3ccc(N(C)C)cc3)Cc3ccco3)c(C)c2c1=O | inactive
Cc1cc(C)c(OCC(=O)Nc2nc3ccccc3[nH]2)c(C)c1 | inconclusive: 31.6 µM [inhibitor, partial curve]
COc1cc(NS(C)(=O)=O)c(OC)cc1NC(=O)c1ccccc1 | inconclusive: 39.8 µM [inhibitor, single point]
COC(=O)c1cc(NC(=O)Nc2ccccc2)ccc1Cl | inconclusive: 35.5 µM [quencher, side channel, single point]
COC(=O)CSc1nc(-c2ccccc2)cc(-c2ccco2)c1C#N | inconclusive: 22.4 µM [quencher, side channel, partial curve]
Cc1ccc(-n2nnnc2SCC(=O)NC(=O)Nc2ccc3c(c2)OCCO3)cc1 | inactive
O=C(COC(=O)c1c(Cl)cccc1Cl)NC1CCCCC1 | inconclusive: 11.2 µM [fluorescent, side channel, partial curve]
COc1cccc(NS(=O)(=O)c2ccc3c(c2)C2C=CCC2C(c2ccc(C(=O)O)cc2)N3)c1 (stereo not given) | inconclusive: 10 µM [quencher, side channel, partial curve]
NC(=S)N/N=C/c1ccc(-c2cccc([N+](=O)[O-])c2)o1 | inconclusive: 20 µM [quencher, side channel, single point]
O=C(c1ccccc1)c1ccc(OCC(O)CNCc2ccc(Cl)cc2)cc1 (stereo not given) | inconclusive: 20 µM [fluorescent, side channel, partial curve]
CCCCNC(=S)N=Nc1c(O)[nH]c2ccccc12 | inconclusive: 28.2 µM [quencher, single point]
CCCNCC(O)Cn1c2ccccc2n2c(=O)cc(C)c(C#N)c12 (stereo not given) | inconclusive: 7.94 µM [inhibitor, partial curve]
CSC(=S)N/N=C/c1ccc(Br)cc1 | inconclusive: 25.1 µM [quencher, side channel, single point]
COc1ccc(OC)c(S(=O)(=O)n2nc(-c3ccccc3)cc2N)c1 | inconclusive: 6.31 µM [quencher, side channel, single point]
Fc1ccc(NC(=S)Nc2ccc(Br)cc2)cc1 | inconclusive: 39.8 µM [quencher, side channel, single point]
O=C(Nc1nc(-c2ccccc2)cs1)C1COc2ccccc2O1 (stereo not given) | inactive
COc1ccc(-c2cc(C(=O)Nc3c(C)nn(Cc4ccc(Cl)cc4)c3C)no2)cc1 | inconclusive: 8.91 µM [fluorescent, side channel, partial curve]
